Reference: the supplement of paper PMC3334620
In all, about 33,000 sequences were measured (“E-score (-0.5 to 0.5)”: median about -0.012, highest 2% from about 0.27 on). The list shows a part of the results.

target: T1, Vhr1 (UniProt P40522); assay: PBM E-score (8-mer binding enrichment) (E-score (-0.5 to 0.5)); higher = stronger / more preferred TF binding; most listed sequences are background and not binding sites; details: protein concentration: 200 nM; construct: GST-full length
T1 sequence: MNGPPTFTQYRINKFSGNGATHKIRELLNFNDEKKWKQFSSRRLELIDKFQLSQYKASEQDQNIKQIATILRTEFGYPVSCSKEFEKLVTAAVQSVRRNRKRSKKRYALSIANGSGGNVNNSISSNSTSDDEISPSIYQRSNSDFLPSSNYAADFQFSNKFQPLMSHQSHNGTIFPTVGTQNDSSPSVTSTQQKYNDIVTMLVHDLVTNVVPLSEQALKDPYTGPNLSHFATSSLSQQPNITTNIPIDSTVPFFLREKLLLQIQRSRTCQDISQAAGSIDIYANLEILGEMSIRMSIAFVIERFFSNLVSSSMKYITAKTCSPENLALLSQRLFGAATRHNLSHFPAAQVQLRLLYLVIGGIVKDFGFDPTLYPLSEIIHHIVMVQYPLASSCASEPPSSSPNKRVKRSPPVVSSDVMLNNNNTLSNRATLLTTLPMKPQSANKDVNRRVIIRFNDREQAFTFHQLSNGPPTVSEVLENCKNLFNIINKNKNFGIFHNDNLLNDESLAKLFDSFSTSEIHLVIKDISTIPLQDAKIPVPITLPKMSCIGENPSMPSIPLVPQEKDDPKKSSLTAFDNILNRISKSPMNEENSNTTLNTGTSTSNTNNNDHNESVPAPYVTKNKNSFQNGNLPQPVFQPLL
Summary of the method: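 GST-tagged yeast TFs (full-length or DNA-binding domain) were made by PURExpress in vitro transcription/translation and applied at about 100-200 nM to universal all-10-mer Agilent arrays. The arrays were made double-stranded by primer extension, on fresh or once-stripped slides. Bound protein was detected with fluorescent anti-GST, and scans were normalised with masliner. Each ungapped eight-base word, pooled with its reverse complement, received an E-score (modified Wilcoxon-Mann-Whitney statistic) from the Universal PBM Analysis Suite.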

Point of comparison: ACTTGTTC, “PBM E-score” value -0.235. Against it:
- CATGCGGC — higher, 0.0506
- ATAGCAAA — higher, -0.0488
- GTATGAGA — higher, 0.0299
- GCAAGCCC — higher, 0.144
- CACGCAGA — higher, -0.0828
- TATGGGAA — higher, -0.0572
- AAAAACGA — higher, -0.0586
- ACTACAAC — higher, 0.212
- TCTCCGCA — higher, -0.0442
- CACATGGG — higher, 0.0571
- AGCATCCC — higher, -0.216
- AGACCGAT — higher, 0.00577
- GTTGGGGA — higher, 0.158
- AGTGGGTA — higher, 0.156
- CAGGTACC — higher, -0.0628
- AGTCTGCG — higher, -0.0483
- GAAGCGTC — higher, -0.157
- GAACGGGC — higher, -0.202
- CCTCCTCG — higher, -0.0913
- GCGAGACC — higher, -0.049
- GCTGACCA — higher, 0.166
- GAAGAACC — higher, 0.0141
- AATGAATT — higher, 0.0558
- AGCACGAG — higher, 0.138
- GGTATCAA — higher, -0.00548
- CGAGAACG — higher, -0.141
- AGGGATCC — higher, -0.151
- ATGTCGCG — higher, -0.0514
- CCTCCCGC — higher, 0.065
- ACAGGACC — higher, 0.00265
- AGAGTCCC — higher, -0.205
- ATGTGCAC — higher, -0.14
- AAGCAGCT — higher, -0.17
- CTGCTGCC — higher, -0.0622
- GGTAGACA — higher, 0.156
- ATCTCTTA — higher, -0.119
- AACCGTGG — higher, -0.0687
- ACCCAGTA — higher, 0.00795
- CCGCGCGC — higher, 0.258
- AATAGAGA — higher, -0.166
- GCATAGAA — higher, -0.00043
- CAAGCGAG — higher, 0.126
- CATCCCCA — higher, 0.111
- ACGAACGG — higher, 0.085
- GTGGAGTA — higher, 0.0296
- ACGTCTCG — higher, -0.0249
- CATTAATA — higher, 0.139
- AGACGCCA — higher, -0.102
- GCGATCCA — higher, 0.172
- TACCTTCA — higher, -0.114
- CCAGCCAG — higher, -0.0814
- AGATATTA — higher, 0.0158
- CATGATCA — higher, 0.197
- TAAGAGTA — higher, -0.137
- CCAGAGGC — higher, -0.133
- CTGCATTA — higher, -0.0315
- GGACTGGA — higher, -0.0542
- AGGCTATA — higher, -0.0453
- ACCTGGGG — higher, -0.148
- CCGCTTAA — higher, -0.13
- CGACGCCC — higher, 0.0794
- CATCAGCC — higher, 0.0877
- GATCAAGA — higher, 0.0476
- AATGAAAC — higher, 0.105
- AACGCGGG — higher, 0.223
- CACCGAGG — higher, -0.113
- AAACTCGG — higher, -0.0264
- ACCTCCTG — higher, -0.139
- ACCCTGGG — higher, 0.12
- TGTCGACA — higher, -0.113
- AGGTGAAG — higher, -0.0547
- GTACATAA — higher, -0.0295
- GCCGCCCC — higher, 0.0606
- ATCGGCAA — higher, -0.187
- ACTGCAGC — higher, -0.0864
- ACCGCCAC — higher, 0.0902
- AAGGAATT — higher, -0.162
- AAAGAGTC — higher, 0.0469
- AAGTGTCT — higher, 0.00039
- ATTTACAG — higher, -0.131
- ACAGATTC — higher, -0.0532
- GCACCGCA — higher, 0.0151
- CAACCATC — higher, 0.0512
- GGTTCGAC — higher, 0.202
- ACTACGCA — higher, 0.0966
- CAGAGAGC — higher, -0.0972
- AACGGGCC — higher, -0.204
- TGACACAA — higher, 0.0494
- AATGTGTC — higher, 0.0746
- CCATCCCA — higher, 0.0849
- CGTTCTCA — higher, -0.134
- CCCTTAGA — lower, -0.275
- ACAAATTA — higher, 0.0867
- ATGGGTCA — higher, 0.263
- AGTGCATA — higher, 0.0602
- ATCTCCCC — higher, 0.0454
- ATGGGAGC — higher, 0.00189
- TAGCCATA — higher, 0.143
- ACGCTAGC — lower, -0.322
- CAACTGGA — higher, -0.121
- GATGCGCC — higher, 0.0507
- AAGAATTG — higher, -0.134
- TGAGCCAA — higher, -0.0117
- GACACACC — higher, 0.28
- CTATGCAC — higher, 0.0285
- AGAATTAC — higher, -0.0111
- GCTAGAAA — higher, -0.0866
- CTCACACA — higher, 0.299
